Assay results reported in the RNAGym collection of RNA variant scans (doi:10.7554/elife.90254).
Read counts are not given, so values of variants with three or more changes are uncertain.

B1: LINE1-mini (parent)
chain: GGCAGAGCUCAACACAGCGUGGCAAAGUGGCUGUGGCUAGACUGCC

Variants of: B1
Assay: self-cleavage, relative activity (ratio to wild type); higher = more cleavage; in vitro, sequencing; the parent is a self-cleaving ribozyme

Variant | self-cleavage
C15G A16U G40A | 0.02
C15A G40U C46U | 0.04
C15G A24C G40U | 0.02
C15A G22C U32G A39U | 0.01
C15A G22U A24G | 0.45
C15G G22U G35C | 0.03
C15U G17A G27A | 0.33
C15A G27A U32C G35A | 0.06
C15G G21U G35C C45A | 0
C15A U20G C23G G30C G33U | 0.29
C15U A24G C31U G35U | 0.12
C15U A26C C31A G44U C45U | 0.03
C15U C18A G29C U38A A41C | 0.01
C15G G17U C46U | 0.15
C15G G27U G33U C45A C46A | 0.01
C15G G30A G40U | 0.01
C15A U28A G44U | 0.01
C15G A24C G29A U34C G40A G44U | 0
C15G G19A U32A | 0
C15U C18U C23U G29U U43C | 0.07
C15G U20A A26U G33U G44A | 0.01

Variant | self-cleavage
C15A U32C C45A | 0.08
C15U C23A G30C C31U C45U | 0.12
C15U C23U A25G G33U G40U C42A | 0
C15A U28G U34C C46A | 0.06
C15G G33A A39U | 0.06
C15A U20G U28C | 0.02
C15A G29U C31G U38G | 0.05
C15A G27U U32C G35A | 0.04
C15A G36U G40C | 0.08
C15G C23A G40A | 0.03
C15G G19C G27U C42A | 0.03
C15G C18A U43C | 0.03
C15A G21U G29U U32C C37U C45G C46G | 0.01
C15U C18G C31U G36U A41C | 0.01
C15G C23A C46G | 0.09
C15A U28G C37G | 0.07
C15A G30A U38G | 0.01
C15U A26C U38G | 0.03
C15G G27A U28A G35C | 0.06
C15G G17A U20C A39U | 0.02
C15G G21A G27A G33U C46G | 0.13

Variant | self-cleavage
C15A G22A G30U C37U C45A | 0.09
C15A U20A G21U U32C C45U | 0.03
C15A U38C C46U | 0.02
C15U C18A A24U G29U | 0.07
C15A G30C C45A | 0.03
C15G G35A G40C U43C | 0.04
C15U A16U U28G | 0.05
C15A G33U G36A | 0.05
C15G A24C U32A G40U | 0
C15U A24U C31U A41C C42A | 0.08
C15A G22U A25C U28A | 0.02
C15A G33U G35C U38C | 0.07
C15U C31G U34C | 0.11
C15U A25C C42A | 0.14
C15A G27U C37U | 0.02
C15U A26G C31U | 0.05
C15U G19C G35A G40U C46U | 0.09
C15G C18U C31U C42U | 0.04
C15A G21C A39G | 0.02
C15G A24C G44U | 0.03
C15A U20C G33A | 0.06

Variant | self-cleavage
C15U C23A G40A A41G C45A | 0.13
C15A G27C G33A G40U | 0.09
C15A G27A G36C C45A | 0.02
C15A G29C C31U G33C G35C | 0.03
C15U C18G A39U G44A | 0.04
C15U A39G C42G | 0.02
C15U C42G G44U | 0.07
C15U A25U G40C | 0.06
C15G C18G G27U U43A | 0.03
C15U C18A G19C U34G | 0.01
C15G G17A G27U U32A A39C | 0.01
C15A G33A C37U A41U | 0.17
C15A U43A G44A | 0.11
C15G G17C C23A | 0.04
C15G G17A G19U G33U U34A | 0.1
C15A G33U A39C | 0.16
C15U G17A G36U U43G | 0
C15G G30C C31G G36A | 0.01
C15U C18G G21U | 0.03
C15A G22A G33U A41U | 0.96
